In assay [1] the target is ATXN3 (transfected, tag not stated for the experiment) (human) (UniProt P54252). Kind of assay: co-IP; transiently transfected HEK293T cells, harvested 48 h after transfection; RIPA lysis buffer, immunoprecipitation with the indicated antibody and Protein G Sepharose, Western blotting. A general note: In western blotting, separated proteins are transferred to a membrane and probed.

Amino acid sequences for entries named in this document (tags omitted).
UniProt P54252: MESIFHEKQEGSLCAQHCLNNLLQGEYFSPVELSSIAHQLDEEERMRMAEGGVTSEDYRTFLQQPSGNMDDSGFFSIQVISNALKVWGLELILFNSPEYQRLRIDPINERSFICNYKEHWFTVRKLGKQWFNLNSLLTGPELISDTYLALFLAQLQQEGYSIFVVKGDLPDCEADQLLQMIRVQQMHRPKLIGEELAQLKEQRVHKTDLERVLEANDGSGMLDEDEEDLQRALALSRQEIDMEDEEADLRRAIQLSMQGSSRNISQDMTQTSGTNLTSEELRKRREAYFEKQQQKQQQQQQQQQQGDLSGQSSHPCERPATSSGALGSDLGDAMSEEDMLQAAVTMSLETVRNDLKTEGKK
UniProt P05412: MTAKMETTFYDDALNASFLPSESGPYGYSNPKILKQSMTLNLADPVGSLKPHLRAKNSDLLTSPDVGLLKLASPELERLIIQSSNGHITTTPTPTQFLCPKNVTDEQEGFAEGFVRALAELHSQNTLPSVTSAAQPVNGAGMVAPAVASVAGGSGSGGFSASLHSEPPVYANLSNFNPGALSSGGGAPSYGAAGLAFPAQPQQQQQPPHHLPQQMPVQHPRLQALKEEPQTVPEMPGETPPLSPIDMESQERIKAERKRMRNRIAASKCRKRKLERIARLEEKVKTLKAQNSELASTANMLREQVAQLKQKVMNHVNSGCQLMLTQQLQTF
UniProt Q16665: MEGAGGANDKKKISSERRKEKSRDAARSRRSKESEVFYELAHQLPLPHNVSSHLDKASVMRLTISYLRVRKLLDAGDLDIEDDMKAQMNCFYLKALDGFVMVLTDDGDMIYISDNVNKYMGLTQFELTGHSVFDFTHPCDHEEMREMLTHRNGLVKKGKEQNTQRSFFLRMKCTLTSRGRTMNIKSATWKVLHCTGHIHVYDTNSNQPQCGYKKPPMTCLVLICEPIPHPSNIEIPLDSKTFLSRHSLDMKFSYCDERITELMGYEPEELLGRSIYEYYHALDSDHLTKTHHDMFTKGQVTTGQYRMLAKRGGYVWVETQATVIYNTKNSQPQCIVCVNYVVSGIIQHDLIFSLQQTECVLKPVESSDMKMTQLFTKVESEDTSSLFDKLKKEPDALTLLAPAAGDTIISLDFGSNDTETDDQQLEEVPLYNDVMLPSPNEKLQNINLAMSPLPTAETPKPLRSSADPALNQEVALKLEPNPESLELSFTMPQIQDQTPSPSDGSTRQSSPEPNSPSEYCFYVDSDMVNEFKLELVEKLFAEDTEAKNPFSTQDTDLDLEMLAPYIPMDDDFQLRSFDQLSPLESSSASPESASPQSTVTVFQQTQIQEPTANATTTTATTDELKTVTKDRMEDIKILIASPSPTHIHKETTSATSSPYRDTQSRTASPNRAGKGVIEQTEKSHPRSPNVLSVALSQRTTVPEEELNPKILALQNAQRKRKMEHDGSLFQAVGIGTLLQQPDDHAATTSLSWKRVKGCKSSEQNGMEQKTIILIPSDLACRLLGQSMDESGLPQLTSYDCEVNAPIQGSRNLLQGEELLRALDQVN
UniProt Q04207: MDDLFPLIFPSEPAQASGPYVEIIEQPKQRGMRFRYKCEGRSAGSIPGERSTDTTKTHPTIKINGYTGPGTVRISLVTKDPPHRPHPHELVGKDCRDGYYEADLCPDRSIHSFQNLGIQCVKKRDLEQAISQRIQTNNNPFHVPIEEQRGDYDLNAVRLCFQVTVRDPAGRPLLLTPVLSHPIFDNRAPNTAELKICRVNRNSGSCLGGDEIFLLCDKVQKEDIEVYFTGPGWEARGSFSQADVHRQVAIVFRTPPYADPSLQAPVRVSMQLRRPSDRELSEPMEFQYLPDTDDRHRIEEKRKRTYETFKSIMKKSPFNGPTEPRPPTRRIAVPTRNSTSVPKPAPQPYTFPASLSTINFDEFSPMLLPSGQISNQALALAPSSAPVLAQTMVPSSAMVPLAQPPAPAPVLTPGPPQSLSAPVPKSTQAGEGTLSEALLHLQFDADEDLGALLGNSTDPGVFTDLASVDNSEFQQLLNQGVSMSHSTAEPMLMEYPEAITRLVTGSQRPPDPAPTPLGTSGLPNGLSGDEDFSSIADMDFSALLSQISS
UniProt P01106: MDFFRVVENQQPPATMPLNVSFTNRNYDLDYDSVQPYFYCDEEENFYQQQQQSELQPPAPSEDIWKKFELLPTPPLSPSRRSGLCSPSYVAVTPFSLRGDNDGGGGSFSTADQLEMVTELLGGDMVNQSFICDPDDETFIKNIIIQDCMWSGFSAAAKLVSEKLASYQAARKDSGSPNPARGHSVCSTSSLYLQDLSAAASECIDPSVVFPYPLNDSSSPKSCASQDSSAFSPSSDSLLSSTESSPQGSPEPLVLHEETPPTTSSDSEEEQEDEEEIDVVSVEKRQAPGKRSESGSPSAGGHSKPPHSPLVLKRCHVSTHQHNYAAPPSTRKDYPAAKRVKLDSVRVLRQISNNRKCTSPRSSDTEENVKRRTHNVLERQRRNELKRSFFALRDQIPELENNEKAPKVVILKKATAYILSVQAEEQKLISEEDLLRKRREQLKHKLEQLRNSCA
UniProt P42224: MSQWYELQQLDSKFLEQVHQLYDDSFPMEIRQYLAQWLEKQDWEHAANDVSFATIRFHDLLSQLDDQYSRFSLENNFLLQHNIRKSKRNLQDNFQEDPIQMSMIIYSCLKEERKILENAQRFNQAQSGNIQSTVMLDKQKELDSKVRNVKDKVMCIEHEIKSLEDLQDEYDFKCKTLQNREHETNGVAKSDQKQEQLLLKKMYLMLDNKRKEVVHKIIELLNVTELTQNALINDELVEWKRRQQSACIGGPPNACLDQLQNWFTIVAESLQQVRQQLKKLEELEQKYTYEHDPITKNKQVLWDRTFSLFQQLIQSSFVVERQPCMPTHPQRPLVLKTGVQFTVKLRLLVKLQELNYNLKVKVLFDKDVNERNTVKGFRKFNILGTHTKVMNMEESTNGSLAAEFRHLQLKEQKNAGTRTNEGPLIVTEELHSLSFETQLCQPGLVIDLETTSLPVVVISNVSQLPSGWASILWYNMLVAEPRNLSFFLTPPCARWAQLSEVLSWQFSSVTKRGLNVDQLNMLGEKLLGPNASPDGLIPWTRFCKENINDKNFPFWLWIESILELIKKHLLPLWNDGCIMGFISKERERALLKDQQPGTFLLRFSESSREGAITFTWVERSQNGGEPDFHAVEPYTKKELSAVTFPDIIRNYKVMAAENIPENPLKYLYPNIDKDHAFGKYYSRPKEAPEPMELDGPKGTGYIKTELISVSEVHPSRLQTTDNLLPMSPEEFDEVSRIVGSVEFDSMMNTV
UniProt Q99814: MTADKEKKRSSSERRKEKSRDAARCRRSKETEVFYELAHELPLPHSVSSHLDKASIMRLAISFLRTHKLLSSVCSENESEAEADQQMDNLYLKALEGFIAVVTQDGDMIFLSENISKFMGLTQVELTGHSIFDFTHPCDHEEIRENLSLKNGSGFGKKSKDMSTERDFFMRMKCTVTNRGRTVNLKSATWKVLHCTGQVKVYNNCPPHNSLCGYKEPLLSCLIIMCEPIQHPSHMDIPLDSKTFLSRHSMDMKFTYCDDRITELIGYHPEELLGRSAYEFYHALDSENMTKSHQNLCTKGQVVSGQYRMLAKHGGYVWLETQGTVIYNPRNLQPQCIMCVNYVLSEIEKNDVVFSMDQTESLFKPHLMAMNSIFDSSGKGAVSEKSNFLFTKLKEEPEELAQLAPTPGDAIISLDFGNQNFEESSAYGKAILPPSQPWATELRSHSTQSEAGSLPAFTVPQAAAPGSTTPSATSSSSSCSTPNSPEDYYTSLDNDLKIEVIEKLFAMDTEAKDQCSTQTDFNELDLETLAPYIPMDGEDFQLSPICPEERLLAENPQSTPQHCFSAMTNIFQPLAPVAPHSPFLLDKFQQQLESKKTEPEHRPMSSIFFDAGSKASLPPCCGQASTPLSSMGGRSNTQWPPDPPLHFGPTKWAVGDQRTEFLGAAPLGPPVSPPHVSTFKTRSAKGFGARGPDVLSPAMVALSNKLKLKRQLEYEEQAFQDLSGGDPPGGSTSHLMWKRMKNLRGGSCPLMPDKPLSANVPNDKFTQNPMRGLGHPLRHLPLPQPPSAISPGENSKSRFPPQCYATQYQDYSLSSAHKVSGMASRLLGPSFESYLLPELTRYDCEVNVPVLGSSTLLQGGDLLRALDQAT
UniProt P40763: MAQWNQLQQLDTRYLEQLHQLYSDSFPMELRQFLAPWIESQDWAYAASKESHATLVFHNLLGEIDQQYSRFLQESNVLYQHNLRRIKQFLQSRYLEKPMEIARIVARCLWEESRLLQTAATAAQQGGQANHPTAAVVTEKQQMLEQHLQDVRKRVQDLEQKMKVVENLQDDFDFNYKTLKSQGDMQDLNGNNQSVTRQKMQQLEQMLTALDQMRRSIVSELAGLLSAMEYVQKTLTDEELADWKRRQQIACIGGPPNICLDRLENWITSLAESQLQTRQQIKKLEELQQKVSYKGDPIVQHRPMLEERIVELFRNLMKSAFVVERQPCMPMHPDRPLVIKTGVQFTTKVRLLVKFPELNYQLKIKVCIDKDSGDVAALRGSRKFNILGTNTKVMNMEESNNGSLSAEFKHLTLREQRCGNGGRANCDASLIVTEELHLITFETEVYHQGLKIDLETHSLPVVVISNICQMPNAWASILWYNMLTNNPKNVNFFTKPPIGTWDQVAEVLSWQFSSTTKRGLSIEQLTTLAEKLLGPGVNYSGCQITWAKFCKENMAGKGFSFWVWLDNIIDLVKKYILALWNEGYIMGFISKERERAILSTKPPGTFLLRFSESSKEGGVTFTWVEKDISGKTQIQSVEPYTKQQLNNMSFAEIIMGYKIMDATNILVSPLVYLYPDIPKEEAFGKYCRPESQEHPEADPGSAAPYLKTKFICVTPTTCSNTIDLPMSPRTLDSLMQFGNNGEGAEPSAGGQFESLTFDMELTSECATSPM

For assay [2] the target is unchanged. The assay can be described thus: co-IP; both proteins overexpressed; cells not named in the sentence (Supplemental Table 1).
Assay [3] addresses ATXN3 (endogenous, A549 cells) (human (endogenous in A549)) (UniProt P54252). Kind of assay: co-IP; endogenous proteins in A549 cells; RIPA lysis buffer, immunoprecipitation with the indicated antibody and Protein G Sepharose, Western blotting.
The target in another assay is FLAG-ATXN3 (human) (UniProt P54252). Kind of assay: co-IP; transiently transfected HEK293T cells, harvested 48 h after transfection; RIPA lysis buffer, immunoprecipitation with the indicated antibody and Protein G Sepharose, Western blotting.
Assay [4] addresses ATXN3 (transfected, tag not stated for the experiment) (human) (UniProt P54252). Described as above. This is another data set of the same source.
The target in assay [5] is ATXN3 (endogenous, cells not named) (UniProt P54252). Kind of assay: co-IP; endogenous proteins, cells not named in the text (Supplemental Figure 6B).
In assay [6] the target is ATXN3 (endogenous, A549 cells) (human (endogenous in A549)) (UniProt P54252). Kind of assay: co-IP; endogenous proteins in A549 cells; RIPA lysis buffer, immunoprecipitation with the indicated antibody and Protein G Sepharose, Western blotting. This is another data set of the same source.

Where two headings read alike, the source gives them in different places. No constants are given. Whether binding was seen depends on the method and setting. Binding seen in cells or lysates may run through a third protein. Some results given as binding are weak or reduced against the parent protein; the word gives no strength. For some of these results: Sequences can lack the tags named with a protein.

c-Jun (from UniProt P05412 1-331): the binding result in assay [1] is reported as “no binding”. As to HA-HIF-1α (from UniProt Q16665 1-826), in assay [1], the binding entry is recorded as “no binding”.

Take NF-κB (p65) (from UniProt Q04207 1-549): in assay [2], the binding entry is listed as “no binding”. As for c-MYC (from UniProt P01106 1-454), the binding entry in assay [1] is reported as “no binding”. As to “STAT1 (A549 cells) (from UniProt P42224 1-750)”, the binding entry in assay [3] was “no binding”. The same measure, in the same setting: next, “HIF-2α (endogenous, A549 cells) (from UniProt Q99814 1-870)”: “binds”; “STAT3 (endogenous, A549 cells) (from UniProt P40763 1-770)”: “binds”. As to HA-HIF-2α (from UniProt Q99814 1-870), the binding entry with FLAG-ATXN3 (human) is reported as “binds”.

As for “STAT3 (transfected) (from UniProt P40763 1-770)”, the binding result in assay [1] is on record as “binds”.

B1: JunB (transfected) (protein, UniProt P17275 1-347)
chain: MCTKMEQPFYHDDSYTATGYGRAPGGLSLHDYKLLKPSLAVNLADPYRSLKAPGARGPGPEGGGGGSYFSGQGSDTGASLKLASSELERLIVPNSNGVITTTPTPPGQYFYPRGGGSGGGAGGAGGGVTEEQEGFADGFVKALDDLHKMNHVTPPNVSLGATGGPPAGPGGVYAGPEPPPVYTNLSSYSPASASSGGAGAAVGTGSSYPTTTISYLPHAPPFAGGHPAQLGLGRGASTFKEEPQTVPEARSRDATPPVSPINMEDQERIKVERKRLRNRLAATKCRKRKLERIARLEDKVKTLKAENAGLSSTAGLLREQVAQLKQKVMTHVSNGCQLLLGVKGHAF
On to B1, for which the binding entry in assay [4] is “binds”.

B2: JunB (endogenous, cells not named) (protein, UniProt P17275 1-347)
chain: MCTKMEQPFYHDDSYTATGYGRAPGGLSLHDYKLLKPSLAVNLADPYRSLKAPGARGPGPEGGGGGSYFSGQGSDTGASLKLASSELERLIVPNSNGVITTTPTPPGQYFYPRGGGSGGGAGGAGGGVTEEQEGFADGFVKALDDLHKMNHVTPPNVSLGATGGPPAGPGGVYAGPEPPPVYTNLSSYSPASASSGGAGAAVGTGSSYPTTTISYLPHAPPFAGGHPAQLGLGRGASTFKEEPQTVPEARSRDATPPVSPINMEDQERIKVERKRLRNRLAATKCRKRKLERIARLEDKVKTLKAENAGLSSTAGLLREQVAQLKQKVMTHVSNGCQLLLGVKGHAF
Regarding B2, the binding result in assay [5] is “binds”.

B3: FLAG-IRF1 (protein, UniProt P10914 1-325)
chain: MPITRMRMRPWLEMQINSNQIPGLIWINKEEMIFQIPWKHAAKHGWDINKDACLFRSWAIHTGRYKAGEKEPDPKTWKANFRCAMNSLPDIEEVKDQSRNKGSSAVRVYRMLPPLTKNQRKERKSKSSRDAKSKAKRKSCGDSSPDTFSDGLSSSTLPDDHSSYTVPGYMQDLEVEQALTPALSPCAVSSTLPDWHIPVEVVPDSTSDLYNFQVSPMPSTSEATTDEDEEGKLPEDIMKLLEQSEWQPTNVDGKGYLLNEPGVQPTSVYGDFSCKEEPEIDSPGGDIGLSLQRVFTDLKNMDATWLDSLLTPVRLPSIQAIPCAP
On to B3, for which the binding result in assay [4] was “binds”.

B4: IRF1 (endogenous, A549 cells) (protein, UniProt P10914 1-325)
chain: MPITRMRMRPWLEMQINSNQIPGLIWINKEEMIFQIPWKHAAKHGWDINKDACLFRSWAIHTGRYKAGEKEPDPKTWKANFRCAMNSLPDIEEVKDQSRNKGSSAVRVYRMLPPLTKNQRKERKSKSSRDAKSKAKRKSCGDSSPDTFSDGLSSSTLPDDHSSYTVPGYMQDLEVEQALTPALSPCAVSSTLPDWHIPVEVVPDSTSDLYNFQVSPMPSTSEATTDEDEEGKLPEDIMKLLEQSEWQPTNVDGKGYLLNEPGVQPTSVYGDFSCKEEPEIDSPGGDIGLSLQRVFTDLKNMDATWLDSLLTPVRLPSIQAIPCAP
Consider B4, for which the binding result in assay [6] is “binds”.
